Measurements: article PMC10294536
Residue numbers refer to the chain shown, from its start. No constants are given. Whether binding was seen depends on the method and setting. Binding seen in cells or lysates may run through a third protein. Some results given as binding are weak or reduced against the parent protein; the word gives no strength. For part of these data: Where a sequence is shown, tags or fusion partners need not be part of it.

Chains of the proteins cited; added tags and fusions are not shown.
UniProt Q9BQQ3: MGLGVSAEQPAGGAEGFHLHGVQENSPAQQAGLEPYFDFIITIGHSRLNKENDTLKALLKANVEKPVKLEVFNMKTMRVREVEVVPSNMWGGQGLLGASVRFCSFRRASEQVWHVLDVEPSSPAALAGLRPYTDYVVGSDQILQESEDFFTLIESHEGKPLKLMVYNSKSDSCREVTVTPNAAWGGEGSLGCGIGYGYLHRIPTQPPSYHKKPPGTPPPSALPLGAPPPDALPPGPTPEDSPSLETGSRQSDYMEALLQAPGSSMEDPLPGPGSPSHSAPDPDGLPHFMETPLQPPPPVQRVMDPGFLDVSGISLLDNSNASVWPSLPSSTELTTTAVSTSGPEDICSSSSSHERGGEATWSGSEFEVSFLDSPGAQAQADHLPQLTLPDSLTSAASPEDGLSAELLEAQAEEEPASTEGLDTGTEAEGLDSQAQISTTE

T1: EGFP-HURP WT (UniProt Q15398)
T1 sequence: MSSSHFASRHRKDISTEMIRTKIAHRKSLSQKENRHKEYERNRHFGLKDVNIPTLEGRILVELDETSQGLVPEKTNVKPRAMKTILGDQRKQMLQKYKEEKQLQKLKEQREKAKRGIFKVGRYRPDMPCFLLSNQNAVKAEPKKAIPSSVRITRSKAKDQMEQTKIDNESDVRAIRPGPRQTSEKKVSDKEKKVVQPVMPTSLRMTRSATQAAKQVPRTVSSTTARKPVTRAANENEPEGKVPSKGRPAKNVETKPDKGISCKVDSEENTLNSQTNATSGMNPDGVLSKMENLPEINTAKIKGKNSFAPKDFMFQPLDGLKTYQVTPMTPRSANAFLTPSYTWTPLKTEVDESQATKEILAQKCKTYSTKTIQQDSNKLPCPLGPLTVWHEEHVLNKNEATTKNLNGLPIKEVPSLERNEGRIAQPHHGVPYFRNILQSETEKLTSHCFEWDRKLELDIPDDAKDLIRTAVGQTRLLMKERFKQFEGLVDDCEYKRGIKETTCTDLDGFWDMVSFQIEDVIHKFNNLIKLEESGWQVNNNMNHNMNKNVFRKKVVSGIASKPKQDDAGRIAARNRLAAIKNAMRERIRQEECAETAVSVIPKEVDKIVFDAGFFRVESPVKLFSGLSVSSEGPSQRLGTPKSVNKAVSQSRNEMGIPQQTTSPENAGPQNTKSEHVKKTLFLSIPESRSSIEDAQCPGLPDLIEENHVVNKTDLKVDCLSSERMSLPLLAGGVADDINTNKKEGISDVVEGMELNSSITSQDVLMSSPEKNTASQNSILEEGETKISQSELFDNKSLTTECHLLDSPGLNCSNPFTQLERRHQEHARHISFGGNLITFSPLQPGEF

T2: EGFP-HURP 725A (UniProt Q15398)
T2 sequence: T1 sequence with S725A

T3: EGFP-HURP 725E (UniProt Q15398)
T3 sequence: T1 sequence with S725E

T4: HURP p725 (human (endogenous in HeLa)) (UniProt Q15398)
T4 sequence (chain, phosphoserine at 725): T1 sequence

B1: GM130 (protein, UniProt Q08379 1-1002)
chain: MWPQPRLPPRPAMSEETRQSKLAAAKKKLREYQQRNSPGVPTGAKKKKKIKNGSNPETTTSGGCHSPEDTPKDNAATLQPSDDTVLPGGVPSPGASLTSMAASQNHDADNVPNLMDETKTFSSTESLRQLSQQLNGLVCESATCVNGEGPASSANLKDLESRYQQLAVALDSSYVTNKQLNITIEKLKQQNQEITDQLEEEKKECHQKQGALREQLQVHIQTIGILVSEKAELQTALAHTQHAARQKEGESEDLASRLQYSRRRVGELERALSAVSTQQKKADRYNKELTKERDALRLELYKNTQSNEDLKQEKSELEEKLRVLVTEKAGMQLNLEELQKKLEMTELLLQQFSSRCEAPDANQQLQQAMEERAQLEAHLGQVMESVRQLQMERDKYAENLKGESAMWRQRMQQMSEQVHTLREEKECSMSRVQELETSLAELRNQMAEPPPPEPPAGPSEVEQQLQAEAEHLRKELEGLAGQLQAQVQDNEGLSRLNREQEERLLELERAAELWGEQAEARRQILETMQNDRTTISRALSQNRELKEQLAELQSGFVKLTNENMEITSALQSEQHVKRELGKKLGELQEKLSELKETVELKSQEAQSLQQQRDQYLGHLQQYVAAYQQLTSEKEVLHNQLLLQTQLVDQLQQQEAQGKAVAEMARQELQETQERLEAATQQNQQLRAQLSLMAHPGEGDGLDREEEEDEEEEEEEAVAVPQPMPSIPEDLESREAMVAFFNSAVASAEEEQARLRGQLKEQRVRCRRLAHLLASAQKEPEAAAPAPGTGGDSVCGETHRALQGAMEKLQSRFMELMQEKADLKERVEELEHRCIQLSGETDTIGEYIALYQSQRAVLKERHREKEEYISRLAQDKEEMKVKLLELQELVLRLVGDRNEWHGRFLAAAQNPADEPTSGAPAPQELGAANQQGDLCEVSLAGSVEPAQGEAREGSPRDNPTAQQIMQLLREMQNPRERPGLGSNPCIPFFYRADENDEVKITVI
B2: GP73 (protein, UniProt Q8NBJ4 1-401)
chain: MMGLGNGRRSMKSPPLVLAALVACIIVLGFNYWIASSRSVDLQTRIMELEGRVRRAAAERGAVELKKNEFQGELEKQREQLDKIQSSHNFQLESVNKLYQDEKAVLVNNITTGERLIRVLQDQLKTLQRNYGRLQQDVLQFQKNQTNLERKFSYDLSQCINQMKEVKEQCEERIEEVTKKGNEAVASRDLSENNDQRQQLQALSEPQPRLQAAGLPHTEVPQGKGNVLGNSKSQTPAPSSEVVLDSKRQVEKEETNEIQVVNEEPQRDRLPQEPGREQVVEDRPVGGRGFGGAGELGQTPQVQAALSVSQENPEMEGPERDQLVIPDGQEEEQEAAGEGRNQQKLRGEDDYNMDENEAESETDKQAALAGNDRNIDVFNVEDQKRDTINLLDQREKRNHTL

Legend:
EGFP-HURP WT = biological target: T1, EGFP-HURP WT; assay: co-IP; 293 cells harboring EGFP, EGFP-HURP WT, 725E or 725A; interaction with GRASP65, GM130 and GP73; precipitating antibody not stated (Fig. 6C)
EGFP-HURP 725A = biological target: T2, EGFP-HURP 725A; assay: as above
EGFP-HURP 725E = biological target: T3, EGFP-HURP 725E; assay: as above
[1] = biological target: T4, HURP p725 (human (endogenous in HeLa)); assay: co-IP; HeLa cells, immunoprecipitation with HURP p725 antibodies or np725 antibodies, Western blots of the partners (Fig. 6A, Fig. 7H)

| Molecule | binding (EGFP-HURP WT) | binding (EGFP-HURP 725A) | binding (EGFP-HURP 725E) | binding [1] |
| --- | --- | --- | --- | --- |
| GRASP65 (from UniProt Q9BQQ3 1-440) | binds | no binding | binds | binds |
| B1 | binds | no binding | binds | binds |
| B2 | binds | no binding | binds | binds |
